According to the supplement of paper PMC10338343:
± gives the standard deviation. The list shows a part of the results, in another mix than the full data.

system: MIWI (PIWIL1) piRISC loaded with L1MC piRNA (30 nt); assay: pre-steady-state target cleavage rate (min^-1); MIWI and MILI are mouse PIWI proteins and EfPiwi is from a freshwater sponge; tags in brackets are library labels; higher = faster piRNA-guided slicing of the target; conditions: guide: L1MC piRNA 5'p-UAACUAAAUACUAUGCAAGCUGUAGGUCCU; auxiliary factor: 500 nM mouse GTSF1
In short: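 The pre-steady-state cleavage rate came from a burst-and-steady-state fit to pooled data from three Cleave-'n-Seq trials, in which uncleaved targets were sequenced and normalised to depth and to weakly complementary targets. Each reaction held 0.1 nM transcribed, DNA-blocked target RNA library and 1 nM active affinity-purified piRISC carrying one synthetic guide, with or without 500 nM GTSF1 partner protein, in HEPES–potassium acetate buffer at 33 °C for 0–8 or 0–960 min. k3 was capped at 0.0001 min^-1.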

| Sequence | pre-steady-state target cleavage rate |
| --- | --- |
| UCCUGGAACAGCUUGGAUAGUAUUUAGAUA | 0.34 ± 0.042 |
| UCCUCCUACAGCUUGCAUUGAAUUUAGUUA | 0.183 ± 0.018 |
| UCCUGGUACAGGAUGCAUAGUAUUUACAAA | 0.0132 ± 0.0054 |
| UCCUGCUACAGCUUCCAUAGUUUUUAGUUA | 0.0485 ± 0.02 |
| UCCUGGAUGAGCUUGCUAAGUAUUUAGUUA | 0.00707 ± 0.0029 |
| UCCUGGAUCAGCUUCCAUAGAAUUUAGUUA | 0.00874 ± 0.0056 |
| UCCUCCUACAGCUUCCAUAGUAUUUACUUA | 0.0319 ± 0.013 |
| UCCACCUACAGGAUGCAUAGUAUUUAGAAA | 0.37 ± 0.048 |
| UCCUGCUACAGCUUGCAUAGUUAUUACAAA | 0.0101 ± 0.0052 |
| UCCUGGAUCAGCUUGCAUUGUAUUUACUUA | 0.261 ± 0.036 |
| UGGACCUACAGCUUGCAUAGUUUUUACAAA | 0.0913 ± 0.017 |
| UGGACCUUACAGCUUGCAUAGUAUUUAGUUA | 1.58 ± 0.095 |
| UGGACCUACAGCUUGCACUAGUAUUUAGUUA | 0.00887 ± 0.0051 |
| UCGACCUACAGCAAGCAUAGUAUUUACAAA | 0.341 ± 0.05 |
| AGGACCAUGAGCUUGCAUAGUAUUUUCAAA | 0.0495 ± 0.017 |
| UCGACCUACAGCUUGCCAUAGUAUUUAGUUA | 0.295 ± 0.032 |
| UCCACCUAGAGCUUGCAUAGUAUUUAGUAA | 0.438 ± 0.066 |
| UCGACCUACAGCUUGGUAAGUAUUUAGUUA | 0.0619 ± 0.011 |

| Sequence | pre-steady-state target cleavage rate |
| --- | --- |
| UCCUGGAACUCCUUGCAUAGUAUUUAGAAA | 0.0445 ± 0.014 |
| UCCUGGUACAGCUUGCAUACUAUUUACUUA | 0.104 ± 0.022 |
| UCCUGCUACAGCUUGCAUAGUAUAAACAAA | 0.258 ± 0.046 |
| UCCUGGUACAGCUUGCAUAGUAGUUUAGUUA | 0.286 ± 0.026 |
| UCCUGGAUGUCCUUGCAUAGUAAUUACUUA | 0.00665 ± 0.0043 |
| UCCUGGAACAGCUUCGUUAGUAUUUAGUUA | 0.0272 ± 0.0057 |
| UCCUGGAUGUCGUUGCAUAGUAUUUAGUUA [g2:g18:cont:t1A] | 0.0403 ± 0.0073 |
| UGGAGCUACAGCUUGCAUAGUAUUUUCAAA | 0.25 ± 0.035 |
| UCCACCUACUCGUUGCAUAGUAUUUACAAA | 0.135 ± 0.023 |
| UCCUGGAUGUCCUUGCAUAGUAUUUACUAA | 0.0245 ± 0.0069 |
| UCCUCCUAGCAGCUUGCAUAGUAUUUAGUUA | 1.12 ± 0.046 |
| UCCUGGAUCAGCUUGCAUAGUAUAUUCAAA | 0.0232 ± 0.0077 |
| UGGACCUACAGCUUGCAUAAGUAUUUAGUUA | 0.00443 ± 0.0043 |
| AGGACCUACAGCUUGCAAUGUAUUUUCAAA | 0.0821 ± 0.024 |
| UCCUGGAACAGCUUGCAUAGUAUAAUCAAA [g8:g23:cont:t1A] | 0.11 ± 0.024 |
| AGGACCUACAGCUUGCAUAGAAUUUAGUAA | 0.556 ± 0.062 |
| UCGACCUACUCGUUGCAUAGUAUUUUCAAA | 0.162 ± 0.025 |
| UCCUGGAUCUCCUUGCAUAGUAUUUUCAAA | 0.0569 ± 0.011 |
